Reference: the supplement of paper PMC12423691
Some of the results follow. Binding of human transcription factors and regulators to the viral nucleoprotein by AlphaScreen, crude cell-free proteins, amounts not normalised, one pass. Fold of the Venus control; higher = more signal. No active / inactive call. Single-pass screen; sequences are the whole Swiss-Prot entries looked up by name.

B1: ZNF30, P17039 (protein)
chain: MAHKYVGLQYHGSVTFEDVAIAFSQQEWESLDSSQRGLYRDVMLENYRNLVSMGHSRSKPHVIALLEQWKEPEVTVRKDGRRWCTDLQLEDDTIGCKEMPTSENCPSFALHQKISRQKPRECQEYGKTLCQDSKPVQHERIHSSEKPNRCKECGKNFSNGHQLTIHQRLHVGEKPYKYEKCGKAFISGSAFVKHGRIHTGEKPLKCKQCGKTISGSYQLTVHKSIHTGKKPYECGECGKAFLVYGKLTRHQSTHTGEKPFGCEECGKAFSTFSYLVQHQRIHTSEKPYECKECGKAFSTSSPLAKHQRIHTGEKPYECKECGKSFTVYGQLTRHQSIHTGEKPFECKECGKAFRLSSFLHAHQRIHAEIKPYGCKECGRTFSRASYLVQHGRLHTGEKPYECKECGKAFSTGSYLVQHQRIHTGEKPYECKECGKAFISRHQLTVHQRVHTGEKPYECKECGKAFRVHVHLTQHRKIHTDVKPYECKECGKTFSRASYLVQHSRIHTGKKPYECKECGKAFSSGSYLVQHQRIHTGEKPYECNKCGKAFTVYGQLIGHQSVHTGEKPFECKECGKAFRLNSFLTEHQRVHTGEKPFKCKKCGKTFRYSSALKVHLRKHMSVIP
B2: ZNF12, P17014 (protein)
chain: MNKSLGPVSFKDVAVDFTQEEWQQLDPEQKITYRDVMLENYSNLVSVGYHIIKPDVISKLEQGEEPWIVEGEFLLQSYPDEVWQTDDLIERIQEEENKPSRQTVFIETLIEERGNVPGKTFDVETNPVPSRKIAYKNSLCDSCEKCLTSVSEYISSDGSYARMKADECSGCGKSLLHIKLEKTHPGDQAYEFNQNGEPYTLNEESLYQKIRILEKPFEYIECQKAFQKDTVFVNHMEEKPYKWNGSEIAFLQMSDLTVHQTSHMEMKPYECSECGKSFCKKSKFIIHQRTHTGEKPYECNQCGKSFCQKGTLTVHQRTHTGEKPYECNECGKNFYQKLHLIQHQRTHSGEKPYECSYCGKSFCQKTHLTQHQRTHSGERPYVCHDCGKTFSQKSALNDHQKIHTGVKLYKCSECGKCFCRKSTLTTHLRTHTGEKPYECNECGKFFSRLSYLTVHYRTHSGEKPYECNECGKTFYLNSALMRHQRVHTGEKPYECNECGKLFSQLSYLTIHHRTHSGVKPYECSECGKTFYQNSALCRHRRIHKGEKPYECYICGKFFSQMSYLTIHHRIHSGEKPYECSECGKTFCQNSALNRHQRTHTGEKAYECYECGKCFSQMSYLTIHHRIHSGEKPFECNECGKAFSRMSYLTVHYRTHSGEKPYECTECGKKFYHKSAFNSHQRIHRRGNMNVIDVGRLL
B3: FOXD4, Q12950 (protein)
chain: MNLPRAERLRSTPQRSLRDSDGEDGKIDVLGEEEDEDEEEAASQQFLEQSLQPGLQVARWGGVALPREHIEGGGGPSDPSEFGTEFRAPPRSAAASEDARQPAKPPSSYIALITMAILQSPHKRLTLSGICAFISDRFPYYRRKFPAWQNSIRHNLSLNDCFVKIPREPGRPGKGNYWSLDPASQDMFDNGSFLRRRKRFQRHQPTPGAHLPHPFPLPAAHAALHNPRPGPLLGAPAPPQPVPGAYPNTGPGRRPYALLHPHPPRYLLLSAPAYAGAPKKAEGADLATPAPFPCCSPHLVLSLGRRARVWRRHREADASLSALRVSCKGSGERVQGLRRVCPRPRGATAPCSSDRQACRTILQQQQRHQEEDCANGCAPTKGAVLGGHLSAASALLRYQAVAEGSGLTSLAAPLGGEGTSPVFLVSPTPSSLAESAGPS
B4: TAF12, Q16514 (protein)
chain: MNQFGPSALINLSNFSSIKPEPASTPPQGSMANSTAVVKIPGTPGAGGRLSPENNQVLTKKKLQDLVREVDPNEQLDEDVEEMLLQIADDFIESVVTAACQLARHRKSSTLEVKDVQLHLERQWNMWIPGFGSEEIRPYKKACTTEAHKQRMALIRKTTKK
B5: SIGIRR, Q6IA17 (protein)
chain: MPGVCDRAPDFLSPSEDQVLRPALGSSVALNCTAWVVSGPHCSLPSVQWLKDGLPLGIGGHYSLHEYSWVKANLSEVLVSSVLGVNVTSTEVYGAFTCSIQNISFSSFTLQRAGPTSHVAAVLASLLVLLALLLAALLYVKCRLNVLLWYQDAYGEVEINDGKLYDAYVSYSDCPEDRKFVNFILKPQLERRRGYKLFLDDRDLLPRAEPSADLLVNLSRCRRLIVVLSDAFLSRAWCSHSFREGLCRLLELTRRPIFITFEGQRRDPAHPALRLLRQHRHLVTLLLWRPGSVTPSSDFWKEVQLALPRKVQYRPVEGDPQTQLQDDKDPMLILRGRVPEGRALDSEVDPDPEGDLGVRGPVFGEPSAPPHTSGVSLGESRSSEVDVSDLGSRNYSARTDFYCLVSKDDM
B6: ZKSCAN2, Q63HK3 (protein)
chain: MAVALDSQIDAPLEVEGCLIMKVEKDPEWASEPILEGSDSSETFRKCFRQFCYEDVTGPHEAFSKLWELCCRWLKPEMRSKEQILELLVIEQFLTILPEKIQAWAQKQCPQSGEEAVALVVHLEKETGRLRQQVSSPVHREKHSPLGAAWEVADFQPEQVETQPRAVSREEPGSLHSGHQEQLNRKRERRPLPKNARPSPWVPALADEWNTLDQEVTTTRLPAGSQEPVKDVHVARGFSYRKSVHQIPAQRDLYRDFRKENVGNVVSLGSAVSTSNKITRLEQRKEPWTLGLHSSNKRSILRSNYVKEKSVHAIQVPARSAGKTWREQQQWGLEDEKIAGVHWSYEETKTFLAILKESRFYETLQACPRNSQVYGAVAEWLRECGFLRTPEQCRTKFKSLQKSYRKVRNGHMLEPCAFFEDMDALLNPAARAPSTDKPKEMIPVPRLKRIAISAKEHISLVEEEEAAEDSDDDEIGIEFIRKSEIHGAPVLFQNLSGVHWGYEETKTFLDILRETRFYEALQACHRKSKLYGAVAEQLRECGFLRTPEQCRTKFKSLQKSYRKVKNGHVLESCAFYKEMDALINSRASAPSPSTPEEVPSPSRQERGGIEVEPQEPTGWEPEETSQEAVIEDSCSERMSEEEIVQEPEFQGPPGLLQSPNDFEIGSSIKEDPTQIVYKDMEQHRALIEKSKRVVSQSTDPSKYRKRECISGRQWENLQGIRQGKPMSQPRDLGKAVVHQRPFVGKRPYRLLKYGESFGRSTRLMCRMTHHKENPYKCGVCGKCFGRSRSLIRHQRIHTGEKPFKCLDCGKSFNDSSNFGAHQRIHTGEKPYRCGECGKCFSQSSSLIIHQRTHTGEKPYQCGECGKSFTNSSHFSAHRRVHTGENPYKCVDCEKSFNNCTRFREHRRIHTGEKPYGCAQCGKRFSKSSVLTKHREVHVREKPLPHPPSLYCPENPHKGKTDEFRKTF

target: nucleoprotein N of Crimean-Congo hemorrhagic fever virus; test: AlphaScreen luminescence signal relative to Venus negative control (fold); higher = stronger binding to CCHFV N
Method: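 AlphaScreen binding of cell-free made, FLAG-GST-tagged human transcription factors and regulators (crude translation products) to biotinylated N protein; signal as fold of the FLAG-GST-Venus control. One pass.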

Binder	AlphaScreen luminescence signal
B1	2.56
B2	2.74
B3	2.09
B4	1.81
B5	2.47
B6	1.53
